# Laboratory results: PubChem BioAssay AID651820 (National Center for Advancing Translational Sciences (NCATS), 2012)
# In all, about 340,000 compounds went through this assay and about 12,000 (3.5%) were called active. Inconclusive results, whose numbers are uncertain, are shown with a selection of clear calls. Calls come from the whole dose curve; as a rule, active = well fitted inhibition curve with a large enough effect; inconclusive = small, poorly fitted or top-dose-only effect, or another doubt; inactive = no such curve, though single readings can be large or run the other way. No potency is given beside an inconclusive call; the fits are too rough.
# Experiment: qHTS Assay for Inhibitors of Hepatitis C Virus (HCV)
# Settings: Huh7.5.1 HCVcc-Cre (HCVcc is cell-culture hepatitis C virus) infection, luciferase reporter, 44 h; series mostly up to 41.8 µM
# In short: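 Infectious HCV cell culture screen: compound-treated cells (1,000/well, pre-plated 4 h) are infected with HCVcc-Cre at roughly 0.5 moi and grown 44 h. Infection is quantified by luciferase signal after 15 min substrate incubation at room temperature.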
# Potency is the fitted concentration of half-maximal effect; tags give direction and shape of the fitted curve.
row,Structure (SMILES),Potency
1,O=C(Nc1ccccn1)c1cccc(S(=O)(=O)N2CCCc3ccccc32)c1,"inconclusive [inhibitor, single point]"
2,Cc1ccc(C(C)NC(=S)NC2CCCCC2)c(C)c1 (centres undefined),"inconclusive [inhibitor, single point]"
3,CC1CCc2nn(CC(=O)NCc3ccc(F)cc3)cc2C1 (centres undefined),inactive
4,O=C(/C=C/c1ccc(F)cc1)NC(=S)Nc1ccccc1C(=O)NC1CCCCC1,"inconclusive [inhibitor, single point]"
5,COc1cc(C)c(Cl)cc1S(=O)(=O)N(C)C,inactive
6,COc1ccc(NS(=O)(=O)c2cc(NC(=O)CC3CCCC3)ccc2N2CCOCC2)cc1,"inconclusive [inhibitor, single point]"
7,CCOC(=O)c1sc(NC(=O)CCCn2nc([N+](=O)[O-])c(Cl)c2C)c(C(=O)OCC)c1C,inactive
8,COc1ccc(C(=O)Nc2ccc3c(c2)C(=O)N(C)C3=O)cc1OC,"inconclusive [inhibitor, partial curve]"
9,Cc1cc(C)c2nc(C(F)(F)F)nc(N3CC(C)OC(C)C3)c2c1 (centres undefined),"inconclusive [inhibitor, partial curve]"
10,S=C(Nc1ccccc1Cl)NC1CCC(NC(=S)Nc2ccccc2Cl)CC1 (centres undefined),"inconclusive [inhibitor, full curve]"
11,Cc1cc(C)c(S(=O)(=O)NC2CC(C)(C)NC(C)(C)C2)cc1Br,"inconclusive [inhibitor, single point]"
12,COc1ccccc1-c1c(-c2ccc(O)cc2O)n[nH]c1C(F)(F)F,"inconclusive [inhibitor, full curve]"
13,CCOC(=O)N1CCC(NC(=O)c2oc3c(C)c(C)ccc3c2C)CC1,"inconclusive [inhibitor, partial curve]"
14,COc1ccccc1-c1nn(Cc2ccccc2)cc1C(=O)N1CCN(c2ncccn2)CC1,inactive
15,Cc1cc(C)n2nc(-c3ccccc3)cc2n1,"inconclusive [inhibitor, single point]"
16,O=C(N/N=C/c1cc2c(cc1Cl)OCO2)c1ccc2c(c1)OCCO2,inactive
17,CCc1nnc(NC(=O)c2nc(S(=O)(=O)Cc3ccccc3)ncc2Cl)s1,"inconclusive [inhibitor, single point]"
18,CSc1nc(Cl)c(Cc2ccc(OCC(C)C)cc2)c(N2CCOCC2)n1,active: 11.2 µM
19,N#C/C(=N\Nc1ccc(F)cc1)C(=O)C1CC1,inactive
20,CCOC(=O)c1c(-c2ccccc2)oc2ccc(OC)cc12,active: 11.2 µM
21,Cc1cccc(C)c1NC(=O)c1sc(Cl)nc1C,inactive
22,CNC[C@H](CC1CCCCC1)NC[C@H](NCCC1CCCC1)[C@H](C)O,active: 11.2 µM

row,Structure (SMILES),Potency
1,CCOC(=O)CCNC(=O)N1CCC(CCC(=O)NCc2ccc(F)cc2)CC1,inactive
2,O=C(CSc1nnc(-c2cccnc2)n1Cc1ccco1)c1ccccc1,inactive
3,COc1ccc(NS(=O)(=O)c2cc(NC(=O)c3ccc(=O)[nH]n3)ccc2C)cc1,"inconclusive [inhibitor, single point]"
4,COCc1cc(=O)[nH]c(Nc2nc3ccc(C)cc3o2)n1,"inconclusive [inhibitor, partial curve, poor fit]"
5,CC(C)C1C(c2ccccc2)NC(c2ccccc2)CC1(O)c1ccc(F)cc1 (centres undefined),"inconclusive [inhibitor, single point]"
6,CCOc1ccccc1C(=O)OCC(=O)Nc1cc(Cl)ccc1Oc1ccccc1,"inconclusive [inhibitor, full curve]"
7,CCOC(=O)c1ccc(NC(=S)N(CCCN2CCCC2)Cc2cccs2)cc1,"inconclusive [inhibitor, full curve]"
8,COc1cccc2c1O/C(=N\O)C(C(=O)Nc1cccc(Br)c1)C2 (centres undefined),"inconclusive [inhibitor, partial curve, poor fit]"
9,CCN1CCN(S(=O)(=O)c2ccc(Oc3ccccc3OC)cc2)CC1,"inconclusive [inhibitor, single point]"
10,CN=c1scc(C)n1/N=C/c1cc(Br)c(O)c(OC)c1,"inconclusive [inhibitor, full curve, poor fit]"
11,CC(C)(C)OC(=O)N[C@H](Cc1ccccc1)C(=O)N1CCC(C(=O)O)CC1,inactive
12,CN(C)/N=C/c1ccc(Sc2ccc([N+](=O)[O-])cc2[N+](=O)[O-])o1,"inconclusive [inhibitor, single point]"
13,CC1Cc2ccccc2N1S(=O)(=O)c1cnc(Cl)c(Br)c1 (centres undefined),"inconclusive [inhibitor, single point]"
14,CCOc1ccc2c(c1)s/c(=N\S(=O)(=O)c1ccc(OC)cc1)n2C(F)F,"inconclusive [inhibitor, partial curve]"
15,CCCCCCCOC(=O)C[N+](C)(C)CCOC1CC2CCC1(C)C2(C)C (centres undefined),"inconclusive [inhibitor, single point]"
16,Cc1ccc(-n2nnnc2SCC(=O)c2ccc3c(c2)NC(=O)CO3)c(C)c1,"inconclusive [inhibitor, single point]"
17,C=CCn1c(C)cc(C(=O)CSc2nnc(NCc3ccccc3)s2)c1C,"inconclusive [inhibitor, single point]"
18,COc1cccc(NC(=O)CSc2nc3c(sc4ccccc43)c(=O)n2CCN(C)C)c1,"inconclusive [inhibitor, full curve, poor fit]"
19,COc1ccc(-n2cc(CNCCc3cnc[nH]3)c(-c3cccc(F)c3)n2)cc1,"inconclusive [inhibitor, single point]"
20,CCNC(=O)CC1C(=O)N(CC)C(=S)N1NC(=O)c1ccc(Cl)cc1 (centres undefined),inactive
21,CN1c2ccccc2Oc2c(c(=O)n(C)c(=O)n2C)C1c1cccc([N+](=O)[O-])c1 (centres undefined),active: 3.55 µM
22,O=C(Nc1ccc(N2CCOCC2)cc1)c1cccc(S(=O)(=O)N2CCC(Cc3ccccc3)CC2)c1,"inconclusive [inhibitor, full curve, poor fit]"
